Test results published in paper PMC12136788.
Some of the results follow.

B1: chr12:109450965:109451066:-|3pUTR|ENSG00000110906|msi1|total|mutant (ssRNA)
RNA: GGGAGUUCUACAGUCCGACGAUCGCCCGGGCACAAUCCCCACUGCUUUGCCCGACGUGCUUUCUGCCAUGUGGCUUUGGGCCCCGAGCUUGUUGAUAAUUGCAGCUUGUGGCAGUGGAAAUAUGGCUGAAUGAGCGUCUAAAUCAACAGAGGAUUGAGCAUCA
B2: chr7:80742902:80743013:-|3pUTR|ENSG00000075223|msi1_unk|FALSE|overlapping (ssRNA)
RNA: GGGAGUUCUACAGUCCGACGAUCUCAGAGUCACAGUUCCCUUUAUUUCACAUAAGCCCAAACUGAUAGACAGUAACGGUGUUUAGUUUUAUACUAUAUUUGUGCUAUUUAAUUCUUUCUAUUUUCACAAUUAUUAAAUUGUGUCAACAGAGGAUUGAGCAUCA
B3: chr2:32377587:32377702:+|CDS|ENSG00000115760|unk|total|mutant (ssRNA)
RNA: GGGAGUUCUACAGUCCGACGAUCGGUGAAAUGUCAGUAUAUCUCUGCUGUGGAUAAAGUUAUAUUUGUGGAUGAUUAUGCAGCCGGGUGCCGGAAGGACCUUAAUGGAAUCUUGUUGUCCGACACUGCUCUGCAAACUCCAGUCAACAGAGGAUUGAGCAUCA
B4: chr1:193029531:193029688:-|CDS|ENSG00000116750|unk|total|mutant (ssRNA)
RNA: GGGAGUUCUACAGUCCGACGAUCUUGAUAUCUUCACUUUUAUAUUUUACCGGUAAUUAAUAAUGCUUGUGCUACUCAAGCCACCGUGAGUGUGUUACUGAACUGUACCCACCAGGAUGUCCAUUCCGGCGAGACAUUAUCAGACAACAGAGGAUUGAGCAUCA
B5: chr1:205337401:205337592:-|CDS|ENSG00000162873|control|control|control (ssRNA)
RNA: GGGAGUUCUACAGUCCGACGAUCGAAGAACAAAUGGGAGAUCCUCCCUGCCAUGCCCACACCCCGCUGUGCCUGCUCCAGCAUAGUCGUCAAGAACUGCCUCCUCGCCGUGGGAGGUGUCAACCAGGGUCUGAGUGACGCAGUCAACAGAGGAUUGAGCAUCA
B6: chr11:48137134:48137235:+|CDS|ENSG00000149177|msi1|FALSE|unique (ssRNA)
RNA: GGGAGUUCUACAGUCCGACGAUCCACGUACUCCUACUGCCUUCUUAUUGAGAAGGCUGGAAAUUCCAGCAACGCAACACAAGUAGUCACGGACAUUGGAAUUACUGACGCUACAGUCACUGAAUUAAUACCUGGCUCAUCAUACAACAGAGGAUUGAGCAUCA
B7: chr12:26337790:26337891:-|3pUTR|ENSG00000123104|unk|total|mutant (ssRNA)
RNA: GGGAGUUCUACAGUCCGACGAUCAAGAUCUAUGCCGAAUAUAAAGGAAGCCUGAACCAAUCCUUCCACAUACUGUUAAGAUGCCGACUUGGAACAAAGCUGUUGGGACCCAGAGCAAUGAAUUUUUGAACUGAAGCUACUGGUCAACAGAGGAUUGAGCAUCA
B8: chr1:203709306:203709407:+|CDS|ENSG00000058668|msi1|FALSE|unique (ssRNA)
RNA: GGGAGUUCUACAGUCCGACGAUCUCCAGAGAAGGAGGGAGGCCUGCCUCGGCAGGUGGGCAACAAGACCGAGUGUGCUCUGCUAGGCUUUGUCACAGAUCUGAAGCAGGAUUAUCAGGCUGUGCGUAAUGAAGUGCCCGAGGACAACAGAGGAUUGAGCAUCA
B9: chr2:32508095:32508220:+|CDS|ENSG00000115760|unk|total|mutant (ssRNA)
RNA: GGGAGUUCUACAGUCCGACGAUCAGCCGAAGCCGCUUCUGCUGUCUGCCUCCGACUACAUCGUCCACGGGAUGCCAGCACAUCCGGCCUUUCACAAAUUAAAUUAUUGGGGCUCACUGCUUUUGGUACCACCUCUUCUGCAACCAACAGAGGAUUGAGCAUCA
B10: ENSG00000131370:stop:overlap|stop_codon|ENSG00000131370|stop_codon|NA|stop_codon (ssRNA)
RNA: GGGAGUUCUACAGUCCGACGAUCAGAAGUUAAAUCAGUCCACGGAUGAUAUCAACAGACGGGAGACUGAACUUGAGGUCCAGUAGGUGUUUGCAGAUCCCUUCUUAAGCCUCAACUGUGUUUCCUCGGUUUCCCCUGGCUGCACAACAGAGGAUUGAGCAUCA
B11: ENSG00000100994:stop:overlap|stop_codon|ENSG00000100994|stop_codon|NA|stop_codon (ssRNA)
RNA: GGGAGUUCUACAGUCCGACGAUCAGAUCUGGGGUGUGGAGCCCUCCGACCUGCAGAUCCCGCCCCCCAACAUCCCCCGGGACUAGGCACACCCUGCCUUGGCGGGACCAGCGGGCAUUUGUUUUCUUGCUGACUUUGCACCUCCAACAGAGGAUUGAGCAUCA
B12: chr7:94910433:94910544:+|CDS|ENSG00000158528|unk|total|mutant (ssRNA)
RNA: GGGAGUUCUACAGUCCGACGAUCCUGGAAAAAACAGAUGGCUCAGUUGUUAAGUUGGAGUCUUCUGUUUCUGAACGAAUCCGCCGAUUUGACACUAUGUACGAUGGCCCUUCAUAUUCCAAGUUCACUGAGACUCGAAAGAUGCAACAGAGGAUUGAGCAUCA
B13: chr7:74121655:74121756:+|3pUTR|ENSG00000106683|msi1|total|mutant (ssRNA)
RNA: GGGAGUUCUACAGUCCGACGAUCGCCCCUUUCCACACGCCGCUGCCCCAGCAACCCUGUUCACGCUCCACCUGUCUGGUCCACCGCUCCCUGGAGGCUGGGCCAGGAGGCAGCCUCCGAACCAUGCCCCAUAUAACGCUUGGGCAACAGAGGAUUGAGCAUCA
B14: chr1:246839951:246840052:-|3pUTR|ENSG00000153207|msi1|FALSE|bound_elsewhere (ssRNA)
RNA: GGGAGUUCUACAGUCCGACGAUCAAAUGUAAAAUAAAUCUGUUUAUGGAUAUUGAGUGCAUCUUGUAUGUGCCUAAUAUUGAUAGGAUGAGAUGUCUGAACAAAUUUUUAUAAUAUUGCUGUGAAGGAGCUUGCUAUUGAACCCAACAGAGGAUUGAGCAUCA
B15: ENSG00000170522:stop:overlap|stop_codon|ENSG00000170522|stop_codon|NA|stop_codon (ssRNA)
RNA: GGGAGUUCUACAGUCCGACGAUCUCUGCCAUUUCUUCUUUGAGGCCUACAUCGGCAAAAUGAGGAAAACAACGAAAGCUGAAUAGUGUUGGAACUGAGGAGGAAGCCAUAGCUCAGGGUCAUCAAGAAAAAUAAUAGACAAAACAACAGAGGAUUGAGCAUCA
B16: chr1:45660537:45660647:-|5pUTR|ENSG00000159592|unk|total|mutant (ssRNA)
RNA: GGGAGUUCUACAGUCCGACGAUCAUUUUUGAUCUAUUACCUUGAUGACAUUAUUUGUCCACACUUGAGCCCAUCUGUCUUUCCCGCUAUGACCUUGUUAUGAACAGUAUUUGCACUCGGUGCAAAUAUCCAUGUCUUACCUAACAACAGAGGAUUGAGCAUCA
B17: chr19:45795712:45795987:-|three_prime_utr|ENSG00000104941|control|control|control (ssRNA)
RNA: GGGAGUUCUACAGUCCGACGAUCGAGGAGGAGGGCGAGGAGGAGGAGGAGGGCGAGGAGACAGAUGACUGAGGCCCACCCUCUAGCCACUUUCCCCAAGCAGGUAGAUAGCAAAUUUCCCCUUAGAGGUAGUUAGCAUGGAUUCAACAGAGGAUUGAGCAUCA
B18: chr13:20822168:20822271:-|CDS|ENSG00000132953|unk|total|mutant (ssRNA)
RNA: GGGAGUUCUACAGUCCGACGAUCUCGAAAAAUCAGAGAAGAUUCAGAUAUGGCACAAGAUUCUCUGCAGUGCCUUGCCCAGUCCGCUUCUCUUCAUGGACCCAUCUUCCCAGAUGAAGGAUCACAAGUUGAUUAUCCCGCACACAACAGAGGAUUGAGCAUCA
B19: chr2:147927148:147927248:+|CDS|ENSG00000121989|msi1_unk|total|mutant (ssRNA)
RNA: GGGAGUUCUACAGUCCGACGAUCUGAAACCAUUGAAGAAUGUUGGGAUCACGACGCAGAAGCCAGGUUAUCAGCUGGAUGUGCCGGUGAAAGAAUUACCCAGAUGCAGAGACUAACAAAUAUUAUUACCACAGAGGACAUUGUCAACAGAGGAUUGAGCAUCA
B20: chr1:45640296:45640398:-|CDS|ENSG00000159592|unk|FALSE|unique (ssRNA)
RNA: GGGAGUUCUACAGUCCGACGAUCCUCUCCACUCUUGUACUUCACAGAAAACCCGCCUAGUGCCAAGCAACCCUCCAAGAUGCUAGUUAUCAAAAAAGUUUCCAAAGAGGAUCCUGCUGCUGCCUUCUCUGCUGCAUUCACCUCCAACAGAGGAUUGAGCAUCA
B21: chr6:42224930:42228669:-|three_prime_utr|ENSG00000124496|control|control|control (ssRNA)
RNA: GGGAGUUCUACAGUCCGACGAUCUGAUCAAGAUUCAGUCUUGCUUCAGGGUGACGCAGAACUAUAAAGCCCUGUGUGUCACUUAGAGACAGUGAAAACCCACGGCCUCCAUCUUCAUUAAUCAGGAAACCUGGACUGCCUGCUCAACAGAGGAUUGAGCAUCA
B22: chr2:46903789:46903890:-|3pUTR|ENSG00000180398|msi1|FALSE|unique (ssRNA)
RNA: GGGAGUUCUACAGUCCGACGAUCAAAUUUCUGCAGCUGGCUUGAAUUUCUCCCCAGAAAAUGGGUUUUUCUUUUCUAUUGCAUAGUCAGGCUGCAAAUUUCCAAACUUUUAUGCUUUGCUUCCCUUAUUUAUAAGGGAAUGCCCAACAGAGGAUUGAGCAUCA

Biological target: MSI1 full-length (mouse, UniProt Q61474 1-362)
Assay: nsRBNS (natural sequence RNA bind-n-seq); RBNS binding buffer (assumed for nsRBNS): 25 mM Tris pH 7.5, 150 mM KCl, 3 mM MgCl2, 0.01% Triton X-100, 500 ug/ml BSA, 20 U/ml SUPERase-In, 4 C; UNK is unkempt and MSI1 is Musashi-1; names of the RNAs are library labels; protein concentration not given here; high values mean tight binding

Sequence of UniProt Q61474 (Q61474 whole entry): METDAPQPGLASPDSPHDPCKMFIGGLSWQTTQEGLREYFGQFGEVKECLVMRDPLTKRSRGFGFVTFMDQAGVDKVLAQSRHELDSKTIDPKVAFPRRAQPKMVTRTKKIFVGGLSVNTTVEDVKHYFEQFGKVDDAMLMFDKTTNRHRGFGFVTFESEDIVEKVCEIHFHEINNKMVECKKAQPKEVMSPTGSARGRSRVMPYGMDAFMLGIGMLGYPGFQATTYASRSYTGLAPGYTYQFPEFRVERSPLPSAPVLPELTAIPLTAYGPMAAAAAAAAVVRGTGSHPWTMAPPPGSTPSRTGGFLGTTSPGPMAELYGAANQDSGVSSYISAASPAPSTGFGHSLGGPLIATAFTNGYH

| Binder | binding signal [enrichment R] |
| --- | --- |
| B1 | 0.424 |
| B2 | 5.09 |
| B3 | 0.427 |
| B4 | 1.15 |
| B5 | 0.533 |
| B6 | 0.446 |
| B7 | 0.335 |
| B8 | 0.411 |
| B9 | 0.39 |
| B10 | 0.475 |
| B11 | 0.425 |
| B12 | 0.407 |
| B13 | 1.03 |
| B14 | 0.429 |
| B15 | 0.371 |
| B16 | 0.281 |
| B17 | 6.43 |
| B18 | 0.303 |
| B19 | 0.944 |
| B20 | 0.734 |
| B21 | 0.348 |
| B22 | 0.47 |
